Experimental data as given in a compilation of properties of binary mixtures (doi:10.1063/1.471076).
The densities may have been worked out from excess volumes.

Experiment: xn = mol fraction of the nth substance listed
Conditions: 101 kPa, x1 = 0.766

CC[NH3+].O=[N+]([O-])[O-] + CCCCCCCCO
Conditions | mass density [kg/m3]
313.57 K | 1065
313.58 K | 1065
313.59 K | 1065
313.61 K | 1065
313.62 K | 1065
313.65 K | 1065
313.67 K | 1065
313.7 K | 1065
313.72 K | 1064.9
313.73 K | 1064.9
313.74 K | 1064.9
313.83 K | 1064.9
313.92 K | 1064.8
314.02 K | 1064.8
314.17 K | 1064.7
314.38 K | 1064.5
314.66 K | 1064.4
314.76 K | 1064.3
314.97 K | 1064.2
315.17 K | 1064
315.58 K | 1063.8
316.6 K | 1063.1
317.3 K | 1062.7
320.18 K | 1060.7
322.16 K | 1059.4
323.04 K | 1058.7
325.03 K | 1057.3
332.99 K | 1051.2
